Data as given in PubChem BioAssay AID588855 (National Center for Advancing Translational Sciences (NCATS), 2011).
In all, about 410,000 compounds went through this assay and about 5,000 (1.2%) were called active. Inconclusive results, whose numbers are uncertain, are shown with a selection of clear calls. Calls follow the shape of the dose curve; as a rule, active = well fitted inhibition curve with a large enough effect; inconclusive = small, poorly fitted or top-dose-only effect; inactive = no such curve, though single readings can be large or run the other way. A potency beside an inconclusive call is a rough fit, not a confirmed value.

Test: qHTS for Inhibitors of TGF-b; also: nearly all actives have a fitted effect of over 65% in size
Settings: HepG2 CAGA-GFP TGF-b/SMAD3 reporter, GFP fluorescence, 18 h, TGF-beta stimulated, 500 pg/mL final; series mostly up to 46.1 µM; activity, negative = inhibition: at the top concentration
How it was run: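 Inhibition of TGF-beta-driven CAGA-GFP reporter expression in HEPG2 cells is measured by cellular GFP fluorescence after 18 h stimulation with 500 pg/mL recombinant TGF-beta in 1% FBS medium at 37 degrees C.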
% is scaled to controls: 0 for no effect and ±100 for the full control effect; potency is read from the fitted curve at half-maximal effect; tags tell the direction and shape of the fitted curve.

| SMILES | Potency | activity, negative = inhibition |
| --- | --- | --- |
| CCN(CC)C(=O)C1CCCN(C(=O)c2cc(COc3cccc(OC)c3)on2)C1 (centres undefined) | inconclusive: 4.47 µM [inhibitor, single point] |  |
| COc1ccc(C(=O)CCNc2ccc(C)c(Cl)c2)cc1 | inconclusive: 35.5 µM [inhibitor, single point] |  |
| Cc1ccc(Cc2c(-c3ccccc3)nc3cc(C)ccn23)cc1 | inconclusive: 20 µM [inhibitor, partial curve, poor fit] |  |
| CC1CC(C)CN(c2ccc(-n3cnnn3)cc2[N+](=O)[O-])C1 (centres undefined) | inconclusive: 0.501 µM [inhibitor, full curve, poor fit] |  |
| Cc1ccc(CNC(=O)C(=O)NCC2CCCO2)cc1 (centres undefined) | inconclusive: 35.5 µM [inhibitor, single point] |  |
| C[C@H](CO)N1C[C@H](C)[C@@H](CN(C)S(=O)(=O)c2ccccc2)Oc2c(NC(=O)Nc3ccc(C(F)(F)F)cc3)cccc2C1=O | active: 10 µM |  |
| COc1ccc(C(Nc2ccccn2)c2c(NC(=O)c3ccco3)sc(C)c2C)cc1 (centres undefined) |  | inactive: -0.53% |
| CC(=O)C1=C(O)C(=O)N(c2ccc(Br)cn2)C1c1ccc(Br)cc1 (centres undefined) |  | inactive: 3.04% |
| Cc1ccc(S(=O)(=O)N2CCN(C(=O)COC(=O)c3ccc(C(C)(C)C)cc3)CC2)c(C)c1 | inconclusive: 35.5 µM [inhibitor, single point] |  |
| O=C(CN1CCCSc2ccccc21)N1CCN(S(=O)(=O)c2cccc(F)c2)CC1 | inconclusive: 22.4 µM [inhibitor, single point] |  |
| S=c1[nH]nc(C(c2ccccc2)C2CCCCC2)o1 (centres undefined) | inconclusive: 14.1 µM [inhibitor, single point] |  |
| Cc1ccc2nc(SCC(=O)NC3CCCc4ccccc43)[nH]c2c1 (centres undefined) |  | inactive: 0% |
| OC(c1ccccc1)c1ncc(-c2cccc(OCc3ccccc3)c2)[nH]1 (centres undefined) |  | inactive: -0.472% |
| CN(C(=O)CN1CCN(c2cc(-c3ccc(OCc4ccccc4)cc3)ncn2)CC1)c1ccccc1 | inconclusive: 35.5 µM [inhibitor, single point] |  |
| COc1cccc(-c2nc(N3CCN(C)CC3)c3ccccc3n2)c1O | inconclusive: 14.1 µM [inhibitor, single point] |  |
| CCC(=O)OC1=CN(Cc2ccccc2)S(=O)(=O)c2ccccc21 |  | inactive: -9.95% |
| COc1cccc2cc(/C(C)=N/Nc3nc(-c4cc(C)ccc4C)cs3)c(=O)oc12 | inconclusive: 35.5 µM [inhibitor, single point] |  |
| Cc1cc(C(F)F)n2nc(C(=O)Nc3sc4c(c3C(N)=O)CCC4)nc2n1 |  | inactive: -6.45% |
| Cc1cc(NC(=O)c2cc(-c3ccccn3)nc3c(Cl)cccc23)no1 |  | inactive: -20.9% |
